# Experimental data published in PubChem BioAssay AID504832 (National Center for Advancing Translational Sciences (NCATS), 2011).
# About 18,000 (5.8%) of roughly 310,000 compounds were called active. The inconclusive results got no clear call from the source; some entries with a clear call stand among them for comparison. Calls follow the shape of the dose curve; as a rule, active = well fitted inhibition curve with a large enough effect; inconclusive = small, poorly fitted or top-dose-only effect, or another doubt; inactive = no such curve, though single readings can be large or run the other way. No potency is given beside an inconclusive call; the fits are too rough.
# Experiment: Primary qHTS for delayed death inhibitors of the malarial parasite plastid, 48 hour incubation
# Conditions: P. falciparum luciferase growth in erythrocytes; series mostly up to 28.7 µM
# Method in brief: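 A one-generation exposure of luciferase-tagged malaria parasites in RPMI 1640/Albumax erythrocyte culture, 37 C and 5% CO2. Inhibition is inferred from decreased luminescence after adding detection reagent.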
# Potency is read from the fitted curve at half-maximal effect; tags tell the direction and shape of the fitted curve.
row,Structure (SMILES),Potency
1,CCOC(=O)C1CCN(C(=O)COc2ccc(Br)cc2)CC1,"inconclusive [inhibitor, partial curve, poor fit]"
2,COC(=O)C1=C(C)NC(=O)CC1c1cc2c(cc1Br)OCO2 (stereo not given),"inconclusive [inhibitor, single point]"
3,CCCc1nn2c(=O)cc(CSCC(=O)Nc3ccc(OC)cc3)nc2s1,inactive
4,CC(=O)c1c(C)[nH]c(C(=O)NNC(=O)COc2cc(C)cc(C)c2)c1C,inactive
5,COc1cccc(NC(=O)c2cccc(C)c2[N+](=O)[O-])c1,inactive
6,CC(C)(C)OC(=O)NCCCCCc1nnc(SCc2cccc(F)c2)o1,"inconclusive [inhibitor, single point]"
7,COc1ccc(-c2nc(NC(=O)C3CC(=O)N(Cc4ccco4)C3)sc2C)cc1 (stereo not given),active: 11.7 µM
8,COc1ccc(C)cc1NC(=O)CN1C(=O)C2CC=CCC2C1=O (stereo not given),"inconclusive [inhibitor, single point]"
9,Cc1cc(C)nc(SCC(=O)OCC(=O)Nc2ccccc2)n1,inactive
10,O=C(c1cc([N+](=O)[O-])ccc1Cl)N1CCN(Cc2ccc3c(c2)OCO3)CC1,inactive
11,CCOC(=O)c1cnn(-c2c(Cc3ccccc3)c(C)nc3c(-c4ccccc4)c(C)nn23)c1N,active: 11.7 µM
12,Cc1cc(C)c2c(c1)[C@@H]1C=CC[C@@H]1[C@H](c1ccc(S(=O)(=O)N3CCOCC3)cc1)N2,active: 10.4 µM
13,O=C1CCC(=O)N1CCCCCc1nc(-c2ccccc2)no1,inactive
14,O=c1[nH]c(C2CCN(S(=O)(=O)c3ccccc3F)CC2)nc2c1nnn2Cc1ccc(OC(F)(F)F)cc1,"inconclusive [inhibitor, partial curve]"
15,CCOC(=O)c1ccc(N2C(=O)c3n[nH]c(C)c3C2c2ccc(OC)c(OC)c2)cc1 (stereo not given),"inconclusive [inhibitor, single point]"
16,COc1ccc([N+](=O)[O-])cc1Nc1c2ccccc2nc2ccccc12,active: 11.7 µM
17,CCOC(=O)N1CCN(c2ncnc3c2[nH]c2ccc(OC)cc23)CC1,"inconclusive [inhibitor, single point]"
18,CCOc1cccc(/C=N/NC(=O)c2cccnc2)c1O,"inconclusive [inhibitor, partial curve]"
19,O=C(COC(=O)Cc1c[nH]c2ccccc12)Nc1c(Cl)cccc1C(F)(F)F,"inconclusive [inhibitor, single point]"
20,O=C(OCCOc1ccc(Br)cc1)c1ccc(Cl)c(S(=O)(=O)N2CCOCC2)c1,"inconclusive [inhibitor, single point]"
